Assay: Plasma concentration of honokiol and pharmacokinetics after intravenous injection in rats
Conditions: rat, HP-TMU 0.5 mg/kg i.v.
Description: Neurological deficit was examined and scored on an 18-point scale before and 24 and 48 h after MCAO reperfusion injury. The changes in neurological deficit scores of different groups are illustrated in FIG. 3A. […] Mean plasma concentrations of honokiol vs. time profile in five rats were measured after intravenous injection of HP-TMU or honokiol.
The plasma concentrations of honokiol at different points are expressed as mean±SD, and the mean concentration-time curve is shown in FIG. 4A.

## C=CCc1ccc(OP(=O)(O)O)c(-c2ccc(OP(=O)([O-])[O-])c(CC=C)c2)c1.[Na+].[Na+] [HP-TMU, sodium 3′,5-diallyl-[1,1′-biphenyl]-2,4′-diyl bis(phosphate)]
  honokiol in plasma after intravenous HP-TMU (conversion to honokiol): could be hydrolyzed to honokiol and be detected in rat plasma
